Test results published in the supplement of paper PMC12217912.
The other results are listed elsewhere or left out. The full chains were built here from the parent and the listed change. Values near 0.05 are background.

B1: TEV protease; numbered along this chain (parent)
chain: MGESLFKGPRDYNPISSSICHLTNESDGHTTSLYGIGFGPFIITNKHLFRRNNGTLVVQSLHGVFKVKDTTTLQQHLVDGRDMIIIRMPKDFPPFPQKLKFREPQREERICLVTTNFQTKSMSSMVSDTSCTFPSGDGIFWKHWIQTKDGQCGSPLVSTRDGFIVGIHSASNFTNTNNYFTSVPKNFMELLTNQEAQQWVSGWRLNADSVLWGGHKVFMVKPEEPFQPVKEATQL

Variants of: B1
Test: raw area under fraction-flipped curve 0-4 h after induction (AUC4h, not background-subtracted), DNA-recorder readout of cleavage of the substrate (dimensionless); higher = more cleavage of the substrate by the protease variant
Details: temperature: 34 °C; time window: 0-4 h after rhamnose induction
Description: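 In vivo DNA recorder in E. coli TOP10(DE3) ΔrhaA at 34 °C. Each TEVp single-site mutant (parent TEVp 0) is paired with a single-site variant of the 7-mer TEVs (canonical ENLYFQ|S). The substrate sits between flexible linkers in a Bxb1-sfGFP-TEVs-SsrA fusion, so cleavage stabilises Bxb1 and speeds flipping of a recombination array, read by NGS. The value is the raw area under the fraction-flipped curve over 0-4 h after rhamnose induction (AUC4h), with ≥20 reads per time point. It is not background-subtracted; inactive controls average about 0.047.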
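Further: Bxb1 expression induced with 0.2% (w/v) L-rhamnose at OD600 near 0.5, cultures sampled hourly, flipped fraction per protease–substrate barcode pair counted by paired-end Illumina sequencing.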

| Variant | area with substrate ENLYFQA | area with substrate ENLYFQC | area with substrate ENLYFQD | area with substrate ENLYFQE | area with substrate ENLYFQF | area with substrate ENLYFQG | area with substrate ENLYFQH | area with substrate ENLYFQK | area with substrate ENLYFQL | area with substrate ENLYFQM | area with substrate ENLYFQP | area with substrate ENLYFQR | area with substrate ENLYFQS | area with substrate ENLYFQT | area with substrate ENLYFQV | area with substrate ENLYFQW | area with substrate ENLYFQN | area with substrate ENLYFQI | area with substrate ENLYFQY | area with substrate ENLYFQQ |
| --- | --- | --- | --- | --- | --- | --- | --- | --- | --- | --- | --- | --- | --- | --- | --- | --- | --- | --- | --- | --- |
| T23M | 0.0829 | 0.122 | 0.0806 | 0.0371 | 0.0704 | 0.0973 | 0.115 | 0.059 | 0.0496 | 0.0858 | 0.0541 | 0.0671 | 0.101 | 0.0639 | 0.0638 | 0.0582 |  |  |  |  |
| E3P | 0.0891 | 0.0984 | 0.0735 |  |  | 0.0902 | 0.0853 | 0.0644 | 0.063 | 0.0963 |  | 0.058 | 0.101 | 0.0737 |  |  | 0.0802 |  |  |  |
| N45D | 0.0607 | 0.0462 | 0.0364 |  |  | 0.062 | 0.0662 | 0.0617 | 0.0535 | 0.0582 | 0.0636 | 0.0649 | 0.0607 | 0.0612 | 0.0546 | 0.0171 | 0.0567 | 0.0476 | 0.0493 |  |
| N45S | 0.116 |  |  |  | 0.0608 | 0.0481 | 0.081 | 0.0615 | 0.0608 | 0.0683 | 0.0576 | 0.0725 | 0.0768 | 0.056 | 0.0611 | 0.0512 | 0.102 | 0.0621 |  | 0.048 |
| N24K | 0.0055 | 0.0756 | 0.0597 | 0.0661 | 0.0534 | 0.0631 | 0.0725 | 0.0606 | 0.0561 | 0.0676 |  | 0.0581 | 0.0826 | 0.0581 | 0.0523 | 0.0617 |  |  |  |  |
| G28H | 0.0799 | 0.0843 | 0.0627 |  |  |  | 0.0701 | 0.0642 |  | 0.0658 | 0.0656 | 0.0541 | 0.0916 |  | 0.0552 |  |  | 0.064 | 0.0853 |  |
| G28S | 0.0671 |  | 0.0559 |  |  |  | 0.0817 | 0.0662 | 0.0557 | 0.0754 | 0.0557 | 0.0557 | 0.0883 | 0.0639 | 0.0604 | 0.0585 | 0.0413 | 0.0629 | 0.0861 |  |
| I42D | 0.0447 |  |  |  | 0.035 |  | 0.0422 | 0.047 | 0.0509 | 0.0497 |  |  | 0.0447 | 0.0464 |  | 0.0416 | 0.0439 |  |  |  |
| I42G | 0.0542 | 0.0465 |  |  |  | 0.0631 | 0.0358 | 0.059 | 0.0372 |  |  | 0.0214 | 0.0439 | 0.0442 | 0.0367 | 0.0432 | 0.0419 | 0.0572 | 0.0403 |  |
| I42W | 0.0513 | 0.0747 | 0.0588 | 0.0399 | 0.105 |  | 0.0811 | 0.0475 | 0.0587 |  | 0.0389 | 0.0499 | 0.0768 | 0.0532 | 0.0483 | 0.0524 | 0.0657 | 0.0458 | 0.0582 | 0.0497 |
| Y34C | 0.103 | 0.0969 |  |  |  | 0.106 |  |  | 0.056 |  | 0.0681 |  | 0.0971 | 0.0595 |  |  |  | 0.0613 | 0.0603 |  |
| D27V | 0.0953 | 0.105 | 0.0667 | 0.0663 |  | 0.045 | 0.0631 | 0.0544 | 0.0745 | 0.0723 | 0.0476 | 0.0419 | 0.0871 | 0.0683 |  |  | 0.0674 | 0.066 |  |  |
| E25A | 0.0937 | 0.134 |  |  |  | 0.108 | 0.0213 | 0.0542 | 0.0486 | 0.0901 | 0.0557 | 0.0647 | 0.105 | 0.0651 | 0.0506 | 0.0661 | 0.0747 | 0.0583 |  | 0.079 |
